# Source: article PMC4336329 (PLoS ONE, 2015)
# Screen size: about 310,000 compounds; about 14,000 (4.5%) showed an effect of 50% or more. Effects have a minus sign here. The list shows a part of the results.
# Biological target: human ether-à-go-go-related gene (hERG) potassium channel (human, UniProt Q12809)
# Assay: primary screen, population patch clamp on CHO cells stably expressing hERG
# 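Note: peak tail current of the secondary pulse compared with the same well before compound.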
# Sequence of human ether-à-go-go-related gene (hERG) potassium channel (Q12809 whole entry, looked up): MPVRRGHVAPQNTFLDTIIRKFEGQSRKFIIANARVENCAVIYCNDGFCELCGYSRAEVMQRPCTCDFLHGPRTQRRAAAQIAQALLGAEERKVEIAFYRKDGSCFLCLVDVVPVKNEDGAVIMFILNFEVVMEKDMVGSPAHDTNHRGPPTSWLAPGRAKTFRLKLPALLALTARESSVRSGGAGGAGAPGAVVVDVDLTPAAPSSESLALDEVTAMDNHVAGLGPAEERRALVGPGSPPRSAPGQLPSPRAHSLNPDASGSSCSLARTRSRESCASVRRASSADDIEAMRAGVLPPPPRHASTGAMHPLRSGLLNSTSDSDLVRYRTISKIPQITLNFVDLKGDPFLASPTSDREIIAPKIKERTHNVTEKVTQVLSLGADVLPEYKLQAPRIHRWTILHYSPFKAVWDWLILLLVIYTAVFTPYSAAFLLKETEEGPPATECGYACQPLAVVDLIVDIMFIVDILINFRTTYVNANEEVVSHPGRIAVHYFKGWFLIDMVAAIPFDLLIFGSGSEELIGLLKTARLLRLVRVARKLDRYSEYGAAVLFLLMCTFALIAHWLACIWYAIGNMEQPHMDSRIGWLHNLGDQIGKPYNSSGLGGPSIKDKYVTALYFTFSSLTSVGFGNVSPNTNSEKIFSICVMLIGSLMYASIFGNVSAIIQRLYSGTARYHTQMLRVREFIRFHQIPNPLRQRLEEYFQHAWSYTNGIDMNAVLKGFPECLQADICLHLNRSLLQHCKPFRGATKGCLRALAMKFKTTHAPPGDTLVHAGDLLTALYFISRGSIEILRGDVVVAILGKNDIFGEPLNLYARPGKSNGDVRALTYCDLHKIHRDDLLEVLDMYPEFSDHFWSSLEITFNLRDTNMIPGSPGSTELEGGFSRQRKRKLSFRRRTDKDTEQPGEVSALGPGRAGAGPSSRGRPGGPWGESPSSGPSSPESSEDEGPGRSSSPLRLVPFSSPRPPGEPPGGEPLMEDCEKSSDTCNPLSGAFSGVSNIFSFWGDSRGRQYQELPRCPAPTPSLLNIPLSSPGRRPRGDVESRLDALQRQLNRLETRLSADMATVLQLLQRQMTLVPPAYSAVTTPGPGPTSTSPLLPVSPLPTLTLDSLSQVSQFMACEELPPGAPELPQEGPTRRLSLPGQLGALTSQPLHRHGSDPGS
row,SMILES,"hERG current change (%, negative = inhibition) at 10uM"
1,C=C1CCN([C@@H](C)C(=O)NCc2cc(OC)c(OC)c(OC)c2)S(=O)(=O)c2ccccc21,-1.5%
2,O=C1c2ccccc2NC(c2ccccc2)N1c1ccc(O)cc1 (centres unmarked),-4.88%
3,O=S(=O)(Nc1ccncc1Cl)c1cc(Cl)ccc1Cl,16.6%
4,CCC(=O)Nc1ccc(Cl)c(NC(=O)c2ccccc2OC)c1,13.5%
5,Cc1cccc(OCCC(=O)OCC(=O)N2CCc3ccccc32)c1,13.4%
6,Cc1ccc(NC(=O)N2CCC(C(=O)NCCC3=CCCCC3)CC2)cc1,4.36%
7,O=C(CCN1C(=O)/C(=C/c2ccccc2F)SC1=S)NCCc1ccc(O)cc1,14.1%
8,CC1=C(C(=O)OCC(C)C)C(c2ccccc2Cl)NC(=O)N1C (centres unmarked),-25.2%
9,Cc1cccc(N=C2SC(C)CN2C(=O)CN2C(=O)NC3(CCCC3)C2=O)c1 (centres unmarked),-37.6%
10,O=C1Nc2ccc(Cl)cc2/C1=C/C1CC=CCC1 (centres unmarked),0.239%
11,Cc1nc2ccc(S(=O)(=O)NCC(=O)O)cc2s1,2.48%
12,Cc1cccc(NC(=O)C(c2cccc([N+](=O)[O-])c2)N2CCCCC2)c1 (centres unmarked),-5.83%
13,Cc1cc(C(=O)Nc2c(F)cc(F)cc2Br)cs1,8.77%
14,O=C(CSc1nnc2c3ccccc3c3ccccc3c2n1)Nc1ccccc1,1.87%
15,Cc1ccc(C)c(NC(CC(=O)c2ccccc2)C(=O)OCC(=O)c2cccs2)c1 (centres unmarked),9.61%
16,COc1cc(S(=O)(=O)Nc2cccnc2)ccc1F,-2.69%
17,Cc1cccc(C)c1NC(=O)NCc1ccco1,13.4%
18,Nc1ccc(N2CCN(c3cccc(Cl)c3)CC2)cc1,-14.6%
19,COc1ccc(S(=O)(=O)N2CCN(C)CC2)cc1NC(=O)c1ccccc1C,-34.8%

row,SMILES,"hERG current change (%, negative = inhibition) at 10uM"
1,O=C(O)COn1c(-c2ccccc2)nc2ccc(Cl)cc21,-8.64%
2,CCc1ccc2c(c1)C(NC(C)=O)C(=O)N2CCN1CCOCC1.Cl (centres unmarked),-5.6%
3,COc1ccc(NS(=O)(=O)c2ccc3c(c2)NC(=O)CO3)cc1,0.556%
4,COc1ccc(C(=O)CN2C(=O)NC3(CCc4ccccc43)C2=O)c(OC)c1 (centres unmarked),6.24%
5,CC(=O)N1c2ccc(S(=O)(=O)N3CCCC3C(=O)Nc3ccc(C)cc3)cc2CC1C (centres unmarked),-28.3%
6,CCCOc1ccccc1NC(=O)CC1Nc2ccccc2NC1=O (centres unmarked),0.604%
7,CCCOC(=O)C1=C(C)NC2=C(C(=O)CCC2)C1c1cccs1 (centres unmarked),2.62%
8,O=C1/C(=C\c2ccsc2)NC(=S)N1c1ccccc1,15.4%
9,C/C=C/C(=O)OCC(=O)Nc1ccc(OC)c(OC)c1,22.2%
10,O=C(c1ccc2snnc2c1)N1CCN(c2ccccn2)CC1,-10.6%
11,O=C1CC2(CCN(C(=O)c3cccc(F)c3)CC2)Oc2ccccc21,-75.1%
12,C=C(C)C1CC=C(C)/C(=N/NC(=O)COc2ccccc2C)C1 (centres unmarked),1.17%
13,Cc1ccccc1CN1C(=O)c2ccccc2S(=O)c2ccc(C(=O)NCCCN3CCOCC3)cc21 (centres unmarked),-40.5%
14,CC1CCCC(C)N1C(=O)COC(=O)c1c[nH]c2ccccc12 (centres unmarked),-5.3%
15,O=C(CSCc1cccc(CSCC(=O)Nc2ccc3ccccc3c2)n1)Nc1ccc2ccccc2c1,9.54%
16,COc1cccc(Nc2nc(Nc3ccc(Cl)c(C(=O)O)c3)nc(C)c2[N+](=O)[O-])c1,-1.8%
17,CC(=O)N(C(C)=O)N1C(=O)c2cccc3c(N4CCOCC4)ccc(c23)C1=O,0.47%
18,CSc1nc2ccc(NS(=O)(=O)c3c(Cl)cccc3Cl)cc2s1,1.23%
19,COc1cc(/C=N/Nc2nc(N3CCCC3)nc(N3CCCC3)n2)ccc1OCc1ccccc1F,8.88%

row,SMILES,"hERG current change (%, negative = inhibition) at 10uM"
1,Cc1ccccc1-n1nnnc1SC1CCOC1=O (centres unmarked),14.4%
2,COc1ccccc1Nc1ccc(C(=O)O)cc1[N+](=O)[O-],14.3%
3,Cc1cccc(C)c1-n1c(C)cc(/C=N/NC(N)=S)c1C,15.6%
4,CC(OC(=O)c1ccc(S(=O)(=O)N(C)c2ccccc2)cc1)C(=O)NCCC1=CCCCC1 (centres unmarked),4.08%
5,CC(C)(C)NC(=O)C(c1cccs1)N(Cc1cccs1)C(=O)c1csnn1 (centres unmarked),-22.5%
6,Cc1ccc(-n2c(C)n[nH]c2=S)cc1C,33.7%
7,CN(C)c1ccc(CNn2cnnc2SCc2ccc(F)cc2)cc1,-9.48%
8,COc1cccc(CN2CCN(Cc3ccco3)CC2)c1.O=C(O)C(=O)O,12.1%
9,Cl.Fc1ccc(C2CCNCC2COc2ccc3c(c2)OCO3)cc1 (centres unmarked),-6.92%
10,CN(C)c1ccc(/C=N/N2C(=S)SC(C)(C)C2N(O)C(=O)Nc2ccc([N+](=O)[O-])cc2)cc1 (centres unmarked),-8.05%
11,COc1ccc(-c2cn(CCC(=O)O)c(C)n2)cc1,3.86%
12,O=c1cc(N2CCCC2)c2ccccc2o1,-3.19%
13,O=C(Nc1cccc(O)c1)c1noc2c1CCCCC2,-8.56%
14,CCC(=O)N1CCN(c2ccc(NC(=O)COc3ccc(CC)cc3)cc2)CC1,-3.27%
15,NC(N)=Nc1nc(-c2ccccc2)c2ccccc2n1,-40.1%
16,Cc1ccc(C(=O)N2CCC(n3nccc3NC(=O)Nc3cccc(F)c3)CC2)cn1,5.74%
17,CCOc1ccc(OCc2ccc(C(=O)NCc3ccncc3)o2)cc1,-26.3%
18,CCN(C(=O)C(C)OC(=O)C1C(C(=O)OC)=C(C)NC(C)=C1C(=O)OC)c1ccccc1 (centres unmarked),6.24%
